# Results: PubChem BioAssay AID588855 (National Center for Advancing Translational Sciences (NCATS), 2011)
# About 5,000 (1.2%) of roughly 410,000 compounds were called active. Inconclusive means that the source gave no clear call. Such entries were picked first, then a sample of the others. The call rests on the fitted dose curve; in most records, active means well fitted inhibition curve with a large enough effect; inconclusive means small, poorly fitted or top-dose-only effect; inactive means no such curve, though single readings can be large or run the other way. A potency beside an inconclusive call is a rough fit, not a confirmed value.
# Test: qHTS for Inhibitors of TGF-b; further: nearly all actives have a fitted effect of over 65% in size
# Conditions: HepG2 CAGA-GFP TGF-b/SMAD3 reporter, GFP fluorescence, 18 h, TGF-beta stimulated, 500 pg/mL final; series mostly up to 46.1 µM; activity, negative = inhibition: at the top concentration
# Summary of the method: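 HEPG2 CAGA-GFP, 1000 cells/well; 2 h settle, 37 C; cpd via pin tool; TGF-b 500 pg/mL final; 18 h, 37 C; GFP imaging ex488/em500-530; %Activity normalised to -TGF-b and +DMSO controls; CRC fit, curve class.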
# On the % scale 0 is the no-effect control and ±100 the full control effect; potency means the concentration at half of the fitted maximal effect; tags describe the fitted curve by direction and shape.
SMILES,Potency,"activity, negative = inhibition"
CC(C)C[C@H](NC(=O)c1nc[nH]c1C(=O)NCC(=O)OCc1ccccc1)C(=O)OCc1ccccc1,"inconclusive: 14.1 µM [inhibitor, single point]",–
CC(C)[C@@H](C(=O)N[C@@H](Cc1ccccc1)C(=O)O)N1C(=O)N2CCc3c([nH]c4ccccc34)[C@@]2(C)C1=O,–,inactive: 13%
O=[N+]([O-])c1cccc(C=NNc2ccc3ccccc3n2)c1O,"inconclusive: 17.8 µM [inhibitor, partial curve, poor fit]",–
COC1=C2C[C@H](C)C[C@H](OC)[C@@H](O)[C@@H](C)C=C(C)[C@H](OC(N)=O)[C@@H](OC)C=CC=C(C)C(=O)NC(=CC1=O)C2=O,"inconclusive: 0.631 µM [inhibitor, full curve]",–
O=C(CCC(=O)NNc1nc2ccccc2c2nc(-c3ccccc3)nn12)NCCCN1CCOCC1,–,inactive: 6.14%
COc1ccccc1-c1noc(CCC(=O)Nc2ccc(C)cc2C)n1,–,inactive: 15.1%
Cc1ccc(NC(=O)C2CCCN(S(=O)(=O)c3cn(C(C)C)cn3)C2)c(C)c1 (configuration not stated),"inconclusive: 5.62 µM [inhibitor, single point]",–
CSc1nc(Cl)cc(N2CCOCC2)n1,–,inactive: 5.88%
COc1cc(OC)c(NC(=O)CCc2c(C)nc3cc(-c4ccccc4OC)nn3c2C)cc1Cl,"inconclusive: 0.562 µM [inhibitor, full curve]",–
COc1ccccc1CNC(=O)c1cc(C2CC2)nc2c1cnn2C(C)C,"inconclusive: 35.5 µM [inhibitor, single point]",–
CCOC(=O)c1ccc(Cn2cnc3ccccc3c2=O)cc1,"inconclusive: 35.5 µM [inhibitor, single point]",–
O=C(COC(=O)c1ccccc1)Nc1cccc(S(=O)(=O)N2CCCCC2)c1,"inconclusive: 35.5 µM [inhibitor, partial curve, poor fit]",–
C/C=C/c1cc(CN2CCN(c3ccc(OC)cc3)CC2)c(O)c(OC)c1,"inconclusive: 2.82 µM [inhibitor, partial curve, poor fit]",–
COc1ccc(CNC(=O)c2cn(Cc3ccccc3OC)c(=O)s2)cc1,–,inactive: -17.5%
CCC(CC)NC(=O)/C=C/c1cccc([N+](=O)[O-])c1,"inconclusive: 2 µM [inhibitor, partial curve, poor fit]",–
N#CCCN(Cc1ccccc1)C(CCc1ccccc1)C(=O)NC1CCCCC1 (configuration not stated),active: 12.6 µM,–
O=C(O)CCCNc1cc(N2CCN(C3CCCCC3)CC2)c2noc3c2c1C(=O)c1ccccc1-3,–,inactive: 8.98%
CCc1ccc(-c2cc(C(=O)NCc3ccco3)c3ccccc3n2)s1,"inconclusive: 35.5 µM [inhibitor, single point]",–
CCn1c(CNc2ccc(Cl)cc2)nnc1SCc1ccc(C)cc1,"inconclusive: 35.5 µM [inhibitor, single point]",–
CCn1c(=O)c2c(nc3n2CCCN3Cc2ccccc2)n(C)c1=O,"inconclusive: 3.98 µM [inhibitor, full curve, poor fit]",–
O=C(c1ccco1)N1CCN(c2c([N+](=O)[O-])nn(-c3cccc(Cl)c3)[n+]2[O-])CC1,"inconclusive: 22.4 µM [inhibitor, single point]",–

SMILES,Potency,"activity, negative = inhibition"
C=C(Br)CN1[C@@H](Cc2ccccc2)[C@H](O)[C@@]23C=C[C@@H](C[C@@H]2S1(=O)=O)O3,"inconclusive: 3.55 µM [inhibitor, single point]",–
N#C/C(=C\c1ccc(Br)s1)C(=O)N1CCN(c2ccccc2)CC1,"inconclusive: 3.16 µM [inhibitor, single point]",–
CCc1nc2ccc(C(=O)NC3CCN(Cc4ccccc4)CC3)cn2c1N(C)Cc1cccs1,"inconclusive: 22.4 µM [inhibitor, single point]",–
O=C(NC(=S)N1CCN(c2ccc(Cl)cc2[N+](=O)[O-])CC1)c1cccs1,"inconclusive: 35.5 µM [inhibitor, single point]",–
COc1ccc(CNC(=O)c2csc(Cc3ccc(Cl)cc3)n2)cc1,"inconclusive: 35.5 µM [inhibitor, single point]",–
CCOc1ccc(CCNC(=O)c2cccc(-n3cnnn3)c2)cc1OCC,–,inactive: -0.406%
CSc1cccc(NC(=O)CN2CCN(Cc3ccccc3C)S2(=O)=O)c1,"inconclusive: 12.6 µM [inhibitor, partial curve, poor fit]",–
Cc1cc2ccccc2n1CCNC(=O)c1ccccc1,–,inactive: 14%
O=C(/C=C/[C@H]1O[C@@H](n2ccc(=O)[nH]c2=O)[C@H](O)[C@@H]1O)N[C@@H](Cc1ccccc1)C(=O)O,"inconclusive: 3.16 µM [inhibitor, single point]",–
Cc1ccc(CNc2ncnc3ccc(-c4ccoc4C)cc23)o1,active: 15.8 µM,–
CCN(CCn1cccn1)Cc1cn[nH]c1-c1cccc2ccccc12,–,inactive: -1.34%
O=C1c2ccccc2C(=O)N1CCC1=CCCCC1,"inconclusive: 14.1 µM [inhibitor, single point]",–
Cc1cc(=O)oc2cc(NC(=O)c3cc([N+](=O)[O-])ccc3N3CCOCC3)ccc12,–,inactive: -12.8%
CC(C(=O)Nc1ccc(C#N)cc1)N(C)CC(=O)Nc1ccccc1Br (configuration not stated),"inconclusive: 22.4 µM [inhibitor, single point]",–
CC(C)C[C@H](NC(=O)c1[nH]cnc1C(=O)N[C@@H](Cc1ccccc1)C(=O)OC(C)(C)C)C(=O)OCc1ccccc1,"inconclusive: 3.98 µM [inhibitor, partial curve, poor fit]",–
COC(=O)[C@H](Cc1ccccc1)NC(=O)NCCc1ccc(OC)cc1,–,inactive: -19.2%
CC(Nc1ccc(Br)cc1)C(=O)Nc1cccc(S(=O)(=O)N2CCOCC2)c1 (configuration not stated),"inconclusive: 11.2 µM [inhibitor, single point]",–
Cc1cc(Nc2cccc(Cl)c2)nc(NCc2ccccc2)n1,active: 17.8 µM,–
Fc1ccc(-c2csc3ncnc(N4CCN(c5ccccc5)CC4)c23)cc1,"inconclusive: 35.5 µM [inhibitor, partial curve, poor fit]",–
O=C(NCCS(=O)(=O)NC1CCCC1)c1ccccc1,–,inactive: -1.58%
Cc1ccc(-c2cc(-c3cccc(F)c3)n[nH]2)c(O)c1,"inconclusive: 35.5 µM [inhibitor, single point]",–
